In patent US7153977B2, “Ligands and methods for preparing same” (National University of Singapore, priority 2000, dated 2006):

Assays:
Experiment in all cases: NEM inhibition of equilibrative 3H-uridine transport in SP2/0-Ag14 cells
[1] = biological target: T1, equilibrative nucleoside transporter (es and ei) in murine myeloma SP2/0-Ag14 cells (Mus musculus, UniProt Q61672); conditions: SP2/0-Ag14 cells; NEM-insensitive component
T1 sequence (Q61672 1-456): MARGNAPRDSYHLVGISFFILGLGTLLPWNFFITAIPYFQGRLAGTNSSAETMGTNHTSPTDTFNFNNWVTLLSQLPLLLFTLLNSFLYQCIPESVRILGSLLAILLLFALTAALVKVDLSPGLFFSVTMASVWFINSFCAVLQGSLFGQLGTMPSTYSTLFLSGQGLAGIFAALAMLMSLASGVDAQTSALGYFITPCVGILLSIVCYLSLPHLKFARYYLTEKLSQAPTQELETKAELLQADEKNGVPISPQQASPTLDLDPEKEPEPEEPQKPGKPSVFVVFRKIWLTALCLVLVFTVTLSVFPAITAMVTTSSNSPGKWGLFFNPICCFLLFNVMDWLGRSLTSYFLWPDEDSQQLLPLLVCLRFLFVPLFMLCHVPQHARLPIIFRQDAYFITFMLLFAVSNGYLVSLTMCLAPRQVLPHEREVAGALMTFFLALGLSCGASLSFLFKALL

[2] = biological target: T2, equilibrative nucleoside transporter (es and ei) in murine myeloma SP2/0-Ag14 cells (Mus musculus, UniProt Q9JIM1)
T2 sequence (Q9JIM1 1-460): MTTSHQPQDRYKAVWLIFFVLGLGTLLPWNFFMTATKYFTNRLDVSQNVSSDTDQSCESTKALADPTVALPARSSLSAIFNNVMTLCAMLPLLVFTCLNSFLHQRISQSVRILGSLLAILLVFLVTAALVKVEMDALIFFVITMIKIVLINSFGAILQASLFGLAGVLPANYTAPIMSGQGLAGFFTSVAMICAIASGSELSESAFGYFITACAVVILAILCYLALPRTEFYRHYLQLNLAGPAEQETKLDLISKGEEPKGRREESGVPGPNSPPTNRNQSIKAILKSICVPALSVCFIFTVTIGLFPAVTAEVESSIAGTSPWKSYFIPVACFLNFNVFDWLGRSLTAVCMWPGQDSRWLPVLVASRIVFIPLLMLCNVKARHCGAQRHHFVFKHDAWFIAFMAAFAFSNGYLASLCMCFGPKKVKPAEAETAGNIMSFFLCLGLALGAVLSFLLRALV

[3] = tested on: equilibrative nucleoside transporter (es and ei) in murine myeloma SP2/0-Ag14 cells; conditions: SP2/0-Ag14 cells; component with IC50 0.15 mM

CCN1C(=O)C=CC1=O [NEM, N-Ethylmaleimide]
NEM concentration gradually abolishing the remaining 30–40% of transport activity [1]: above 3 mM | IC50 [2]: 150 µM | share of transport activity inhibited by NEM (sensitive component) [3]: 60–70%
